According to patent US20250179172A1 (HAINAN SIMCERE ZAIMING PHARMACEUTICAL, published 2025):

T1: human CD5, full length, on cells (Jurkat, endogenous; CHO-K1-human CD5, transfected) (human, UniProt P06127 25-495)
T1 construct: Jurkat cells carry the endogenous protein; also called hCD5; CHO-K1-hCD5-2B2
T1 sequence: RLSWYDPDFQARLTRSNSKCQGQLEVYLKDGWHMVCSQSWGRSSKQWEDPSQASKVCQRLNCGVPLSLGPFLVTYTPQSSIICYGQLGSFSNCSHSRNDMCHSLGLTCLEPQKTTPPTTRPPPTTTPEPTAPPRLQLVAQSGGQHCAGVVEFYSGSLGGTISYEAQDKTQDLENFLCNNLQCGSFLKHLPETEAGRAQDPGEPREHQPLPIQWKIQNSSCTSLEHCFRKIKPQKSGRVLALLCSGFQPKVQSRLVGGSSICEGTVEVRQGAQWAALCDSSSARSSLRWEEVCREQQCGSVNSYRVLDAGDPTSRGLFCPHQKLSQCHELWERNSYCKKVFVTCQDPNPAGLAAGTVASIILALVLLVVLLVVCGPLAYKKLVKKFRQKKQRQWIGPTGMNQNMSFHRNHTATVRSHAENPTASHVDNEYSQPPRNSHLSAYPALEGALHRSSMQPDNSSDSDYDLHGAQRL

T2: monkey CD5, full length, on HEK293T cells (monkey)
T2 construct: also called HEK293T-monkey CD5
T2 chain: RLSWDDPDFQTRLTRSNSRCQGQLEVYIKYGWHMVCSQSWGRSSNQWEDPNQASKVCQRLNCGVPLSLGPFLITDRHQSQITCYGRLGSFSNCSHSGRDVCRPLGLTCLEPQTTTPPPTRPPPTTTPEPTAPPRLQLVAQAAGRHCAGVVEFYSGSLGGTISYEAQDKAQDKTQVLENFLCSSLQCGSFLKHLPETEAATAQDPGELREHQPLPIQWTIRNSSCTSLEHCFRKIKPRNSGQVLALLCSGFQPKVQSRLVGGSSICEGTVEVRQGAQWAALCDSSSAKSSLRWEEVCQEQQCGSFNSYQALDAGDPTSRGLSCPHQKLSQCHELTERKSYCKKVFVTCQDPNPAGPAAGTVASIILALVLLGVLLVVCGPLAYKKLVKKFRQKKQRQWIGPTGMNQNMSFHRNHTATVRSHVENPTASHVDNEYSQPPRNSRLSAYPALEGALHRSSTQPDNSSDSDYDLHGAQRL

T3: murine CD5-His (Sino Biologicals, Cat. No. 50403-M08H) (murine, UniProt P13379 24-371)
T3 construct: also called murine CD5 protein; not shown: His tag
T3 sequence (looked up): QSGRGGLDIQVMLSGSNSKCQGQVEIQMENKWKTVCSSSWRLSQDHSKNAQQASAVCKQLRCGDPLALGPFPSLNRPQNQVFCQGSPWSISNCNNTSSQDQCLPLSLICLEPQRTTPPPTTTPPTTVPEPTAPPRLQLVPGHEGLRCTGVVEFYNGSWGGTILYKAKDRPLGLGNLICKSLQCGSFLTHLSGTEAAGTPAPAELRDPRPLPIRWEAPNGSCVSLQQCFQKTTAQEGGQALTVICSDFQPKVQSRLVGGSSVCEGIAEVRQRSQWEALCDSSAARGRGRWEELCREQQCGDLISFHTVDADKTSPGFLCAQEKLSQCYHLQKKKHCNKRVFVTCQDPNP

B1: H65 scFv-hFc (Fc fusion)
chain: NIQLVQSGPELKKPGETVKISCKASGYTFTNYGMNWVKQAPGKGLRWMGWINTHTGEPTYADDFKGRFAFSLETSASTAYLQINNLKNEDTATYFCTRRGYDWYFDVWGAGTTVTVSSGGGGSGGGGSGGGGSDIKMTQSPSSMYASLGERVTITCKASQDINSYLSWFHHKPGKSPKTLIYRANRLVDGVPSRFSGSGSGQDYSLTISSLDYEDMGIYYCQQYDESPWTFGGGTKLEMK[human IgG1 Fc with changes not printed]
notes: also called H65 antibody
B2: S005-NB144-31 VHH-hFc (Fc fusion)
chain: EVQVVESGGGLVQPGGSLRLSCAASGFTLDYYAIGWFRQAPGKEREGLSCISTSGGSTNYADSVKGRFTISRDNAKNTVYLQMNSLKPEDTAVYYCAASSFWDCAVVGTGSPKTGHLESVFGSWGQGTQVTVSS[human IgG1 Fc with changes not printed]
notes: VHH fused to human IgG1 Fc; no linker stated; also called S002-NB144-31
B3: S005-NB144-3 VHH-hFc (Fc fusion)
chain: QLQLVESGGGLVQPGGSLRLSCAASGFTFSSYAMSWYRQAPGKERELVAAITSAGGSTTYADSVKDRFTISRDNAKNTVSLQMNSLKPEDTAVYYCNAYCTGYVCHEGGYDYWGQGTQVTVSS[human IgG1 Fc with changes not printed]
notes: VHH variable region recombined into vector BI3.4-huIgG1 with signal peptide and human IgG1 Fc; no linker between VHH and Fc is stated
B4: S005-NB145-22 VHH-hFc (Fc fusion)
chain: QVQLVESGGGLVQAGGSLRLSCAVSGRTLSTVVVGWFRQTPGREREFVAVSRSGGATGYADSVKDRFTISRDNAKNTVALQMNSLKPEDTAVYYCAGRGSGLYGSSWYNQIQEYDGWGQGTQVTVSS[human IgG1 Fc with changes not printed]
notes: VHH fused to human IgG1 Fc; no linker stated
B5: S005-NB144-43 VHH-hFc (Fc fusion)
chain: QVQLVESGGGLVQPGGSLRLSCAASGFTWDYYAIGWFRQAPGKEREGVSCIDSSGGSINYLDSVKGRFTVSRDNAKNTVYLQMDSLKPEDTAIYYCAASSYWDCAVPDTGSPKTGHLESYFGSWGQGTQVIVSS[human IgG1 Fc with changes not printed]
notes: VHH fused to human IgG1 Fc; no linker stated; also called S002-NB144-43
B6: S005-NB144-4 VHH-hFc (Fc fusion)
chain: EVQVVESGGGLVQAGGSLRLSCAASGSIFSINAMGWYRQAPGKEREVVAAISNGGNTYYEDSVMGRFTISRDNAKGTLYLQMNGLKPEDTAVYYCNADTVVGGGLLTEVWGQGTLVTVSS[human IgG1 Fc with changes not printed]
notes: as for B4
B7: S005-NB144-73 VHH-hFc (Fc fusion)
chain: EVQVVESGGGLVQAGGSLRLSCAASGDTICISAMYWYRQAPGKAREMVAAITSGGSTYYEDSVMGRFTIFRENAKNTVYLQMNSLKPEDTAVYYCNADIAGHNCSGYLKEYWGQGTQVTVSA[human IgG1 Fc with changes not printed]
notes: VHH fused to human IgG1 Fc; no linker stated; also called S002-NB144-73
B8: S005-NB144-6 VHH-hFc (Fc fusion)
chain: QVQLVESGGGLVQAGGSLRLSCAASGSIFSISVMGWYRQAPGKERETVAVISSGGSTYYADSVKGRFTISRDNAKNTLYLQMNSLKPEDTAVYYCNADFETASGSPLYESWGQGTQVTVSS[human IgG1 Fc with changes not printed]
notes: as for B4
B9: S005-NB144-7 VHH-hFc (Fc fusion)
chain: EVQVVESGGGLVQAGGSLRLSCAASGSIFSINLLGWYRQAPGKERESVAILSSGGSTYYADSVKGRFTISRDNVKNMLYLQMNSLKPEDTAVYYCNAVGGIATLRDYWGQGTQVTVSS[human IgG1 Fc with changes not printed]
notes: as for B4
B10: S005-NB145-3 VHH-hFc (Fc fusion)
chain: QVQLVESGGGLVQPGGSLRLSCAASGFSLDYYAIGWFRQAPGKEREGVSYISPSDGRTYYADSVKGRFTISRDNAKNTVYLQMNSLKPEDTAVYYCATDWGSTSFDYGLKLSPTQYGYWGQGTQVTVSS[human IgG1 Fc with changes not printed]
notes: as for B4
B11: S005-NB145-92 VHH-hFc (Fc fusion)
chain: EVQLVESGGGLVQPGGSLRLSCAASGFSLDYYAIGWFRQAPGKEREGVSYISASDGSTYYADSVKGRFTISRDNAKNTVYLQMNSLKPEDTAVYYCATDWGSGSFNYGLRLSPTQYDYWGQGTQVTVSS[human IgG1 Fc with changes not printed]
notes: as for B4
B12: S005-NB145-74 VHH-hFc (Fc fusion)
chain: EVQLVESGGGLVQAGGSLRLSCAASESTFSITAMGWYRQAPGKQRELVAAITSPGGSTNYADSVKGRFTISRDNAKNTMLLQMNSLKPEDTAVYYCNADINHGSGYYTVSWGQGTQVTVSS[human IgG1 Fc with changes not printed]
notes: as for B4

These binders were tested against T1, human CD5, full length, on cells … (assay: FACS on Jurkat cells).
Method: The results were assayed and analyzed by FACS (FACS Canto™, purchased from BD Biosciences) using the antibody H65 as a primary antibody (working concentration: 100 nM) and an Alexa Flour488-labeled secondary antibody (purchased from Invitrogen, Cat. No. A11013).

Binder | EC50 (read off the curve) [nM]
B1 | ~0.2

Target: T2, monkey CD5, full length, on HEK293T …
Assay: FACS on HEK293T-monkey CD5 cells
Excerpt: The desired cells were expanded to a logarithmic growth phase in a T-75 cell culture flask. Adherent cells CHO-K1-human CD5 were removed from the culture medium by pipetting, and the cells were washed twice with a PBS buffer, digested with trypsin, and washed twice with a PBS buffer again after the digestion was stopped. For suspension cells Jurkat, the medium supernatant was discarded by direct centrifugation, and the cell pellet was washed twice with PBS. After the cells obtained in the last step were subjected to cell counting, the cell pellet was resuspended to 2×10⁶ cells/mL with a blocking solution [PBS+2% (w/w) BSA] and added to a 96-well FACS reaction plate with 50 μL/well. The VHH-hFc or control antibody was added with 50 μL/well, and the plate was incubated on ice for 2 h. […] After the plate was centrifuged and washed for 5 times with a PBS buffer, the results were assayed and analyzed by FACS (FACS Canto™, purchased from BD Biosciences). Data analysis was performed by software (BD FACSDiva) to obtain the mean fluorescence intensity (MFI) of the cells. Analysis was then performed by software (GraphPad Prism8), data were fitted, and EC₅₀ values were calculated. […] The same method was used to assay the binding reactions of 1 nM and 10 nM VHH-hFc antibodies with Jurkat cells and endogenous CD5-negative Raji cells, and to assay the binding reactions of 1 nM and 10 nM VHH-hFc antibodies with CHO-K1 cells and CHO-K1-human CD5.
HEK293T-monkey CD5 cells were subjected to the FACS assay and data analysis according to the method described in Example 4.2.

Binder | EC50 [nM] | Max MFI [MFI] | binding result
B2 | 27 | 19600 | 
B3 |  | 76 | no binding
B4 |  | 114 | no binding
B5 | 12.8 | 22900 | 
B6 |  | 75 | no binding
B7 | 33.2 | 17200 | 
B8 |  | 150 | no binding
B9 |  | 102 | no binding
B10 |  | 110 | no binding
B11 |  | 198 | no binding
B12 |  | 76 | no binding

What follows are binders tested against T3, murine CD5-His (Sino Biologicals, Cat. …) (assay: ELISA on murine CD5-His, antibody 1.00 nM).
Method: The binding activity of the H65 antibody prepared above with human CD5 protein was subjected to ELISA assay. A purchased commercial antigen (human CD5-His) was diluted with PBS to obtain a final concentration of 2 μg/mL, and then added to a 96-well ELISA plate with 100 µL/well. The plate was sealed with a plastic film and incubated at 4° C. over the night, washed twice with PBS in the next day, added with a blocking solution [PBS+2% (w/w) BSA] and blocked at room temperature for 2 h. The blocking solution was drained out, and 100 nM of the H65 antibody or negative control antibody hIgG1 after gradient dilution was added, namely, the obtained product was the antibody Anti-HEL-hIgG1 against hen egg lysozyme (purchased from Biointron, Cat. No. B117901) with 50 μl per well. After incubation for 2 h at 37° C., the plate was washed for 3 times with PBS. A secondary antibody labeled with HRP (horseradish peroxidase) (A0170, purchased from Sigma) was added. After incubation for 2 h at 37° C., the plate was washed for 5 times with PBS. A TMB substrate was added with 50 μL/well and incubated at room temperature for 30 min, then a stop solution (1.0 N HCl) was added with 50 μL/well.
To assay the species cross-activity of the VHH-hFc, ELISA plates were coated with commercial murine CD5-His (CD5 (Sino Biologicals, Cat. No. 50403-M08H)), and ELISA assays were performed according to the method described in Example 2.2. […] The negative control is hIgG1 and NB145 serves as the positive control (NB145 has been verified to be bound to murine CD5); data in the table are values of OD_{450 nm}.

Binder | OD450 [OD450]
B2 | 0.1
B3 | 0.11
B4 | 0.09
B5 | 0.11
B6 | 0.08
B7 | 0.1
B8 | 0.1
B9 | 0.09
B10 | 0.08
B11 | 0.11
B12 | 0.12
